The whole screen tested about 39,000 compounds, of which about 220 (0.56%) showed activity. The list shows a part of the results.
The compounds below were run on Escherichia coli K-12 BW25113 (assay: relative growth (OD600 normalised to plate interquartile mean) (fraction); higher = less growth inhibition, active = 0.2 or less). Details: 50 µM; LB; incubation time: overnight (16-24 h).
In the case of `COc1ccccc1C(=O)Nc1ccc2c(c1)C(=O)N(C)[C@H]1CC[C@H](CC(=O)Nc3cccc(C(C)C)c3)O[C@@H]1CO2`, the relative growth is reported as inactive: 1.03.
For `C[C@H]1CN([C@@H](C)CO)C(=O)Cc2cc(NC(=O)Nc3ccc(C(F)(F)F)cc3)ccc2O[C@@H]1CN(C)Cc1ccc(C(F)(F)F)cc1`, the relative growth was inactive: 1.02.
`Cc1ccc(S(=O)(=O)Nc2ccc3c(c2)C(=O)N([C@@H](C)CO)C[C@H](C)[C@H](CN(C)C(=O)Nc2cccc4ccccc24)OCCCC[C@H](C)O3)cc1` was tested, and the relative growth was inactive: 1.03.
`CC(C)C#Cc1cnc2c(c1)C(=O)N([C@H](C)CO)C[C@@H](C)[C@@H](CN(C)S(=O)(=O)c1cn(C)cn1)O2` was tested, and the relative growth was inactive: 0.99.
For `CC(=O)CCCCn1c(=O)c2c(ncn2C)n(C)c1=O`, the relative growth was inactive: 1.12.
`Cc1ccc(N2NC(=O)/C(=N/O)C2=O)cc1C` was tested, and the relative growth was inactive: 0.968.
In the case of `COc1ccc(NC(=O)Nc2ccc3c(c2)C(=O)N([C@H](C)CO)C[C@H](C)[C@H](CN(C)Cc2ccc4c(c2)OCO4)OCCCC[C@@H](C)O3)cc1`, the relative growth is reported as inactive: 0.949.
For `CCS(=O)(=O)Nc1ccc2c(c1)C(=O)N(C)[C@H]1CC[C@H](CC(=O)NCc3ccc(OC)cc3)O[C@@H]1CO2`, the relative growth was inactive: 0.983.
With `O=C(C[C@@H]1C[C@@H]2c3cc(NC(=O)Nc4ccc(C(F)(F)F)cc4)ccc3O[C@@H]2[C@@H](CO)O1)NCc1cc(F)ccc1F` the relative growth was inactive: 0.995.
With `C[C@@H]1CN([C@@H](C)CO)C(=O)Cc2cc(NC(=O)Cn3cnnn3)ccc2O[C@H]1CN(C)S(=O)(=O)c1cn(C)cn1` the relative growth was inactive: 1.
In the case of `C[C@H]1CN([C@@H](C)CO)C(=O)c2cc(NS(=O)(=O)c3cn(C)cn3)ccc2O[C@H]1CN(C)C(=O)Nc1ccccc1`, the relative growth is reported as inactive: 0.988.
In the case of `C[C@@H]1CN([C@@H](C)CO)C(=O)Cc2cc(NS(=O)(=O)c3cccs3)ccc2O[C@H]1CN(C)Cc1ccc(Oc2ccccc2)cc1`, the relative growth is reported as inactive: 0.976.
For `O=C(N[C@@H]1CC[C@H](CC(=O)N2CCOCC2)O[C@@H]1CO)c1ccc2c(c1)OCO2`, the relative growth was inactive: 1.02.
`CNC[C@@H]1OCCCC[C@@H](C)Oc2ccc(NS(=O)(=O)c3cn(C)cn3)cc2C(=O)N([C@@H](C)CO)C[C@H]1C` was tested, and the relative growth was inactive: 0.971.
For `CNC(=O)Cn1cc(N)cn1`, the relative growth was inactive: 0.998.
For `O=C(C[C@@H]1CC[C@@H]2[C@H](COC[C@@H](O)CN2S(=O)(=O)c2ccccc2Cl)O1)NCCc1ccncc1`, the relative growth was inactive: 0.98.
With `C#Cc1ccc([C@H]2C=C(C(=O)N3CCOCC3)O[C@@H](OCCCCOC(=O)NCCCCCC(=O)NO)C2)cc1` the relative growth was inactive: 0.931.
For `Cc1noc(C)c1S(=O)(=O)Nc1ccc2c(c1)C(=O)N([C@@H](C)CO)C[C@H](C)[C@H](CN(C)S(=O)(=O)c1ccc(F)cc1)O2`, the relative growth was inactive: 1.02.
For `COc1cccc(OC)c1C(=O)O[C@H]1[C@@H]2OC(=O)[C@H](Cc3cccc(Br)c3)C/C=C/C[C@@H](Cc3cccc(Br)c3)C(=O)O[C@H]2[C@@H](OC)O[C@@H]1CO`, the relative growth was inactive: 0.987.
With `Cc1noc(C)c1NC(=O)Nc1ccc2c(c1)C(=O)N([C@H](C)CO)C[C@@H](C)[C@H](CN(C)S(=O)(=O)c1ccccc1)O2` the relative growth was inactive: 0.99.
In the case of `O=c1n(-c2ccc(F)cc2)nc2n1CCCN2`, the relative growth is reported as inactive: 0.97.
For `Cc1noc(C)c1NC(=O)Nc1ccc2c(c1)CC(=O)N([C@@H](C)CO)C[C@H](C)[C@@H](CN(C)S(C)(=O)=O)O2`, the relative growth was inactive: 0.993.
In the case of `Cc1cc(C)c2[nH]c3ccccc3c2n1`, the relative growth is reported as inactive: 0.879.
With `CC12CCC(=O)C=C1C=CC1C2CCC2(C)C1CCC21CCC(=O)O1` (centres undefined) the relative growth was inactive: 1.18.
With `O=c1c(-c2ccc(O)cc2)coc2cc(O)ccc12` the relative growth was inactive: 0.967.
With `NC(=O)N1CCC[C@H](C(=O)O)C1` the relative growth was inactive: 0.99.
`COC(=O)CCC(C)C1CCC2C3CCC4CC(O)CCC4(C)C3CC(O)C12C` (centres undefined) was tested, and the relative growth was inactive: 1.01.
`CCn1cc(C2=NO[C@H](C(=O)O)C2)c(C)n1` was tested, and the relative growth was inactive: 1.02.
With `Cc1ccccc1S(=O)(=O)N(C)C[C@@H]1Oc2ccc(NC(=O)Nc3cccc(C(F)(F)F)c3)cc2CC(=O)N([C@@H](C)CO)C[C@@H]1C` the relative growth was inactive: 0.975.
For `CNC[C@@H]1OCCCC[C@@H](C)Oc2ccc(NS(=O)(=O)c3cn(C)cn3)cc2C(=O)N([C@H](C)CO)C[C@H]1C`, the relative growth was inactive: 0.981.
`O=C(O)c1cc(S(=O)(=O)NCCN2CCNC2=O)ccc1O` was tested, and the relative growth was inactive: 1.04.
With `C[C@@H]1CN([C@H](C)CO)C(=O)Cc2cc(NC(=O)CCC(F)(F)F)ccc2O[C@@H]1CN(C)Cc1ccc(Cl)c(Cl)c1` the relative growth was inactive: 0.988.
With `C[C@H]1CN([C@@H](C)CO)C(=O)c2cc(NC(=O)Cc3cn(C)c4ccccc34)ccc2O[C@@H]1CN(C)Cc1ccc(C(F)(F)F)cc1` the relative growth was inactive: 0.98.
With `C[C@H]1CN([C@@H](C)CO)C(=O)c2cccc(NC(=O)Nc3ccccc3)c2O[C@H]1CN(C)C(=O)Nc1ccc(C(F)(F)F)cc1` the relative growth was inactive: 0.993.
For `O=C(N[C@H](c1ccc(F)cc1)c1ccc2ccccc2n1)C1CCN(CCOc2ccc(Cl)cc2)CC1`, the relative growth was inactive: 0.988.
`C[C@@H]1CCCCO[C@@H](CN(C)Cc2ccccc2)[C@H](C)CN([C@H](C)CO)C(=O)c2cc(NC(=O)Cc3ccccc3)ccc2O1` was tested, and the relative growth was inactive: 0.998.
`COc1ccc(S(=O)(=O)N(C)C[C@H]2Oc3ccc(NC(=O)Cn4cnnn4)cc3CC(=O)N([C@@H](C)CO)C[C@H]2C)cc1` was tested, and the relative growth was inactive: 0.924.
With `O=C/C=C/c1ccc(Cl)cc1` the relative growth was inactive: 0.977.
With `C[C@@H]1CN([C@@H](C)CO)C(=O)c2cc(NS(C)(=O)=O)ccc2O[C@@H](C)CCCCO[C@@H]1CN(C)C(=O)CCCN(C)C` the relative growth was inactive: 0.996.
With `NC(=O)CSc1nnc(Cc2cc(=O)[nH]c(=O)[nH]2)n1-c1ccccc1` the relative growth was inactive: 0.994.
With `C[C@@H]1CN([C@H](C)CO)C(=O)c2cccc(NC(=O)C3CCOCC3)c2O[C@@H]1CN(C)C(=O)Nc1ccc2c(c1)OCO2` the relative growth was inactive: 1.01.
`C[C@@H]1CN([C@@H](C)CO)C(=O)c2cc(C#CCN(C)C)cnc2O[C@@H]1CN(C)C(=O)c1ccc2c(c1)OCO2` was tested, and the relative growth was inactive: 0.994.
For `CCn1nnnc1NCc1cccn1C`, the relative growth was inactive: 1.
`C[C@H]1CN([C@@H](C)CO)C(=O)Cc2cc(NC(=O)Nc3ccccc3)ccc2O[C@H]1CN(C)S(=O)(=O)c1cn(C)cn1` was tested, and the relative growth was inactive: 0.993.
`COc1ccccc1CNC(=O)C[C@@H]1C[C@@H]2c3cc(NC(=O)c4ccc5c(c4)OCO5)ccc3O[C@@H]2[C@@H](CO)O1` was tested, and the relative growth was inactive: 0.992.
With `Cc1ccc(S(=O)(=O)Nc2ccc3c(c2)CC(=O)N([C@H](C)CO)C[C@@H](C)[C@H](CN(C)Cc2ccc(-c4ccccc4)cc2)O3)cc1` the relative growth was inactive: 1.06.
For `C[C@@H]1CCCCO[C@@H](CN(C)C(=O)Nc2ccc(F)cc2)[C@@H](C)CN([C@H](C)CO)C(=O)c2cc(NC(=O)Nc3ccc(C(F)(F)F)cc3)ccc2O1`, the relative growth was inactive: 1.02.
`C[C@@H]1CCCCO[C@H](CN(C)C(=O)CCC(F)(F)F)[C@@H](C)CN([C@H](C)CO)C(=O)c2cc(NC(=O)Cc3ccccc3)ccc2O1` was tested, and the relative growth was inactive: 0.99.
For `COc1ccc(CN(C)C[C@@H]2OCCCC[C@H](C)Oc3ccc(NC(=O)Nc4ccc(C(F)(F)F)cc4)cc3C(=O)N([C@@H](C)CO)C[C@@H]2C)cc1`, the relative growth was inactive: 0.956.
For `CC(C)CC#Cc1ccc2c(c1)O[C@@H](CN(C)C(=O)C1CCOCC1)[C@H](C)CN([C@@H](C)CO)S2(=O)=O`, the relative growth was inactive: 1.01.
In the case of `Cc1ccc(S(=O)(=O)N(C)C[C@@H]2OCCCC[C@@H](C)Oc3ccc(NC(=O)Cc4ccccc4)cc3C(=O)N([C@@H](C)CO)C[C@H]2C)cc1`, the relative growth is reported as inactive: 1.
`COc1ccc(S(=O)(=O)N(C)C[C@H]2Oc3c(NS(=O)(=O)c4cn(C)cn4)cccc3C(=O)N([C@H](C)CO)C[C@@H]2C)cc1` was tested, and the relative growth was inactive: 1.01.
`CC1=NCC[C@@H](C(=O)O)N1` was tested, and the relative growth was inactive: 0.931.
With `NC[C@@](O)(CS(=O)(=O)O)c1ccc(Cl)cc1` the relative growth was inactive: 0.996.
`COc1cccc(NC(=O)N2C[C@@H](O)COC[C@H]3O[C@@H](CC(=O)NCCCN4CCOCC4)CC[C@@H]32)c1` was tested, and the relative growth was inactive: 1.02.
`Cc1noc(C)c1NC(=O)Nc1cccc2c1O[C@@H](CN(C)Cc1ccc(Oc3ccccc3)cc1)[C@H](C)CN([C@H](C)CO)C2=O` was tested, and the relative growth was inactive: 0.995.
`C[C@@H]1CCCCO[C@@H](CN(C)Cc2ccncc2)[C@H](C)CN([C@H](C)CO)C(=O)c2cc(NC(=O)Nc3ccc4c(c3)OCO4)ccc2O1` was tested, and the relative growth was inactive: 0.988.
`COc1ccccc1C#Cc1ccc2c(c1)O[C@@H](CN(C)C(C)=O)[C@H](C)CN([C@@H](C)CO)S2(=O)=O` was tested, and the relative growth was inactive: 1.04.
In the case of `C=CCOC(=O)[C@H]1[C@@H]2C(=O)O[C@@H](c3ccccc3)[C@@H](c3ccccc3)N2[C@@H](c2ccc(OCCOC(=O)NCCCCCC(=O)NO)cc2)[C@@]12C(=O)Nc1ccccc12`, the relative growth is reported as inactive: 1.03.
For `C[C@H]1CN([C@@H](C)CO)C(=O)c2cc(NC(=O)C3CC3)ccc2O[C@@H]1CN(C)Cc1ccc(Oc2ccccc2)cc1`, the relative growth was inactive: 1.
In the case of `O=C(C[C@@H]1CC[C@H]2[C@@H](COC[C@@H](O)CN2CC2CCOCC2)O1)N1CCOCC1`, the relative growth is reported as inactive: 1.02.
In the case of `CN1C(=O)/C(=C(/C#N)C(N)=O)c2ccccc21`, the relative growth is reported as inactive: 1.
With `Cc1cc(C(=O)Nc2cccc3c2O[C@@H](CN(C)C(=O)Nc2ccccc2)[C@H](C)CN([C@@H](C)CO)C3=O)n(C)n1` the relative growth was inactive: 0.996.
`CCCCC[C@@H](C[C@@H](CC(=O)O)O[C@H]1O[C@@H](CO)[C@@H](O)[C@@H](O)[C@@H]1O)OC(=O)C[C@H](O)C[C@H](CCCCC)O[C@H]1O[C@@H](CO)[C@@H](O)[C@@H](O)[C@@H]1O` was tested, and the relative growth was inactive: 0.986.

Reference: the supplement of paper PMC9446081
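Further: static incubation at 37 °C against the wild-type strain, values averaged over two biological replicates.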
